Results: ChEMBL document CHEMBL4888484, “Replenishing the malaria drug discovery pipeline: Screening and hit evaluation of the MMV Hit Generation Library 1 (HGL1) against asexual blood stage Plasmodium falciparum ,using a nano luciferase reporter read-out” (2022)
In all, about 150,000 compounds went through this assay and about 540 (0.36%) showed an effect of 50% or more. The list shows a part of the results.

Test system: Plasmodium falciparum
Experiment: Primary screen in NF54 nanoGlo assay, in single point, at 2uM, 72h; a lower Z score goes with more inhibition
Type: functional, Erythrocyte
Conditions: timepoint 72 hour

First: CCc1noc(C)c1CNc1cnn(CC(F)F)c1
Second: Cc1noc(C)c1CN1CC[C@H](NC(=O)Cc2ccsc2)C1
The “% Inhibition” value of the first is lower: -5% for the first, 1% for the second.

First: COc1ccccc1OCCn1cnnc1[C@H](O)c1ccccc1
Second: OCc1csc(-c2ccccc2-c2ccccc2)n1
The “% Inhibition” value of the first is higher: -3% for the first, -10% for the second.

Going from `CN1CC2CCN(C(=O)C3(O)CCc4cc(Br)ccc4C3)C2C1` (stereo not drawn) to `Cn1ncc(C2CC2)c1C(=O)N1CCCN(c2ccc(Cl)c(Cl)c2)CC1`, the “% Inhibition” value falls from 9% to 4%.

Compared with `COC(=O)C1CC(Oc2ccccc2F)CN1S(=O)(=O)c1cc(Cl)ccc1OC` (stereo not drawn), `CCN1c2ccc(Cl)cc2C(=O)NC12CCN(C(=O)NCc1ccccc1)CC2` is higher in “% Inhibition” value: -7% for the first, -6% for the second.

Going from `CC(NC(=O)CC1CC2CCC1C2)c1ccccn1` (stereo not drawn) to `CC1(C)C(O)CC1NC(=O)C1CCN1Cc1ccccc1` (stereo not drawn), the “% Inhibition” value falls from -4% to -8%.

First: CC(=O)N1CCC[C@H]1C(=O)Nc1ccc(-c2cccc(F)c2F)cn1
Second: N#Cc1ccc(C(=O)N2CCC[C@@H]2CC(=O)c2ccccc2)nc1
The “% Inhibition” value of the first is higher: 0% for the first, -12% for the second.

Going from `CC(C)CN1C(=O)CC[C@@H](C(=O)N2CCCCC2)[C@@H]1c1cccnc1` to `O=C(c1ccsc1)N1CCC[C@H](N(CCN2CCCC2)C(=O)C2CCC2)C1`, the “% Inhibition” value falls from 31% to -2%.

First: Cn1nc(C(F)(F)F)c2cc(C(=O)N3CCCC34CCC4)cnc21
Second: C[C@@H](C(=O)NC1(C#N)CCCCC1)N1CCn2ccnc2C1
The “% Inhibition” value of the first is higher: 0% for the first, -12% for the second.

First: NC(=O)N[C@H]1CCCC[C@H]1CC(F)(F)F
Second: COC1CCCCCC1NC(=O)NC1CC=CC1 (stereo not drawn)
The “% Inhibition” value of the first is higher: -3% for the first, -14% for the second.

Compared with `Cc1c(Cl)cccc1-n1nc(CC(N)=O)nc1[C@@H](O)Cc1ccccc1`, `Cc1c(Cl)cccc1C(=O)NCCC(=O)Nc1cccnc1` is higher in “% Inhibition” value: -18% for the first, 5% for the second.

Compared with `CCC#CCN1CCC(CNC(=O)c2ccsc2)CC1`, `Cc1oc(-c2ccsc2)nc1CN1CCC[C@H](Cn2cncn2)C1` is higher in “% Inhibition” value: -5% for the first, -1% for the second.

First: CCCc1nn(-c2ccc(Cl)c(Cl)c2)c(CC)c1C(=O)NC1CC1
Second: O=C(N[C@H]1CCc2[nH]c3ccc(Br)cc3c2C1)c1ccc(Cl)c(Cl)c1
The “% Inhibition” value of the first is higher: -8% for the first, -9% for the second.

Compared with `C[C@@H](C(=O)N(C)CCn1ccc2ccccc21)N1CCCC1=O`, `C[C@@H](c1ccon1)N(C)C(=O)c1n[nH]c2ccccc12` is higher in “% Inhibition” value: -7% for the first, -6% for the second.

Compared with `Cc1ccc(-c2nc(C3(S(C)(=O)=O)CCCC3)no2)cc1`, `CN(C)S(=O)(=O)c1ccc(C(=O)Nc2onc3c2CCC3)cc1` is higher in “% Inhibition” value: -7% for the first, -6% for the second.

First: N#C[C@@H](NC(=O)CCC(=O)c1ccc(F)cc1F)C1CCCCC1
Second: O=C(Nc1ccc(F)cc1)[C@@H]1C[C@H](C(=O)NC2CCCCC2)CN(Cc2c[nH]c3ccccc23)C1
The “% Inhibition” value of the first is lower: -12% for the first, -2% for the second.

Compared with `CC[C@@H](c1nc2c3c(C)c(C)n(-c4ccc(F)cc4)c3ncn2n1)N1C(=O)c2ccccc2C1=O`, `Cc1cccc(-n2c(-c3sc(Nc4ccccc4)nc3-c3ccccc3)nc3ccccc3c2=O)c1` is higher in “% Inhibition” value: -24% for the first, 38% for the second.

First: O=C(NC1CCC2(CC1)CC2)C1CCS(=O)(=O)CC1
Second: CN(C(=O)c1ccc(C(=O)O)s1)C(C1CC1)C1CC1
The “% Inhibition” value of the first is higher: 13% for the first, -13% for the second.

First: CCOc1cc(CN2C[C@H]3CC[C@@H](C2)[C@H]3O)cc(Cl)c1OCC
Second: CCCOc1c(CN2C[C@]3(CCOC3)CCC2=O)cccc1OC
The “% Inhibition” value of the first is higher: 5% for the first, 2% for the second.

First: CCOc1nc2cc(NC(=O)C[C@@H]3COC(=O)C3)ccc2o1
Second: CC(C)(C)n1c(=O)c2ccc(F)cc2n1CC(=O)Nc1cccc(Cl)c1
The “% Inhibition” value of the first is lower: -31% for the first, -8% for the second.

Going from `Cn1nc(C2CC2)c2c1NC(=O)C[C@H]2c1ccc(-c2ccccc2C#N)o1` to `COc1ccc(C(=O)N2CCC3(CC2)C[C@@H](Cc2ccccc2)CCO3)cc1F`, the “% Inhibition” value rises from -17% to 1%.

Compared with `Cc1cc(C(=O)N2CCC[C@H](Oc3cccnn3)C2)c(C)o1`, `Cc1cc(S(=O)(=O)N2CCN(Cc3ccccn3)CC2)sc1C` is higher in “% Inhibition” value: -4% for the first, 10% for the second.

`CO[C@@H](C)c1nc(CN(C)Cc2cn(C)nn2)cs1` and `CCO[C@@H](C)C(=O)NCCc1nc(C)c(Cl)s1` are the same in “% Inhibition” value: -12% for the first, -12% for the second.

First: CC1CN(c2nccnc2C#N)CCN1C(=O)NC1CCCC1C(C)(C)C (stereo not drawn)
Second: C=CC[C@@H]1N(Cc2nnc3n2CCCCC3)CCCC1(C)C
The “% Inhibition” value of the first is higher: -2% for the first, -5% for the second.

First: CC[C@H](C)c1ccc(NC(=O)c2cccc(COc3ccc4ccccc4c3)c2)cc1
Second: O=S(=O)(NCc1csc(-c2cccnc2)n1)c1ccc2ccccc2c1
The “% Inhibition” value of the first is lower: -25% for the first, 3% for the second.

Compared with `COCC[C@]1(NC(=O)Nc2cccc(C)c2)CCN(C(=O)c2ccc(C)c(C)c2)C1`, `Cc1scnc1NC(=O)c1cccc(N)c1` is higher in “% Inhibition” value: -2% for the first, 1% for the second.

First: Nc1cc(C(=O)NCCc2cnn(-c3ccccc3)c2)n[nH]1
Second: CN(Cc1nc(-c2cccs2)no1)C(=O)c1cccc(F)c1
The “% Inhibition” value of the first is higher: -11% for the first, -19% for the second.

First: C=CCN1CC(=O)N(CCn2ccnc2)C1=O
Second: CCC(=O)N(CCn1cccn1)c1nc2ccc(F)cc2s1
The “% Inhibition” value of the first is lower: 9% for the first, 14% for the second.

Going from `CCc1noc(C)c1CNc1cnn(CC(F)F)c1` to `Cc1noc(C)c1CN1CC[C@H](NC(=O)Cc2ccsc2)C1`, the Z score falls from 0.67 to -0.2.

First: COc1ccccc1OCCn1cnnc1[C@H](O)c1ccccc1
Second: OCc1csc(-c2ccccc2-c2ccccc2)n1
The Z score of the first is lower: 0.45 for the first, 1.28 for the second.

Going from `CN1CC2CCN(C(=O)C3(O)CCc4cc(Br)ccc4C3)C2C1` (stereo not drawn) to `Cn1ncc(C2CC2)c1C(=O)N1CCCN(c2ccc(Cl)c(Cl)c2)CC1`, the Z score rises from -1.61 to -0.64.

Compared with `COC(=O)C1CC(Oc2ccccc2F)CN1S(=O)(=O)c1cc(Cl)ccc1OC` (stereo not drawn), `CCN1c2ccc(Cl)cc2C(=O)NC12CCN(C(=O)NCc1ccccc1)CC2` is lower in Z score: 1.41 for the first, 0.72 for the second.

First: CC(NC(=O)CC1CC2CCC1C2)c1ccccn1 (stereo not drawn)
Second: CC1(C)C(O)CC1NC(=O)C1CCN1Cc1ccccc1 (stereo not drawn)
The Z score of the first is lower: 0.62 for the first, 0.76 for the second.

Going from `CC(=O)N1CCC[C@H]1C(=O)Nc1ccc(-c2cccc(F)c2F)cn1` to `N#Cc1ccc(C(=O)N2CCC[C@@H]2CC(=O)c2ccccc2)nc1`, the Z score rises from 0 to 1.21.

Going from `CC(C)CN1C(=O)CC[C@@H](C(=O)N2CCCCC2)[C@@H]1c1cccnc1` to `O=C(c1ccsc1)N1CCC[C@H](N(CCN2CCCC2)C(=O)C2CCC2)C1`, the Z score rises from -3.53 to 0.26.

Going from `Cn1nc(C(F)(F)F)c2cc(C(=O)N3CCCC34CCC4)cnc21` to `C[C@@H](C(=O)NC1(C#N)CCCCC1)N1CCn2ccnc2C1`, the Z score rises from 0.06 to 1.9.

Going from `NC(=O)N[C@H]1CCCC[C@H]1CC(F)(F)F` to `COC1CCCCCC1NC(=O)NC1CC=CC1` (stereo not drawn), the Z score rises from 0.41 to 1.41.

Going from `Cc1c(Cl)cccc1-n1nc(CC(N)=O)nc1[C@@H](O)Cc1ccccc1` to `Cc1c(Cl)cccc1C(=O)NCCC(=O)Nc1cccnc1`, the Z score falls from 1.62 to -0.89.

Going from `CCC#CCN1CCC(CNC(=O)c2ccsc2)CC1` to `Cc1oc(-c2ccsc2)nc1CN1CCC[C@H](Cn2cncn2)C1`, the Z score falls from 0.86 to 0.08.

Compared with `CCCc1nn(-c2ccc(Cl)c(Cl)c2)c(CC)c1C(=O)NC1CC1`, `O=C(N[C@H]1CCc2[nH]c3ccc(Br)cc3c2C1)c1ccc(Cl)c(Cl)c1` is higher in Z score: 1.1 for the first, 1.26 for the second.

Going from `C[C@@H](C(=O)N(C)CCn1ccc2ccccc21)N1CCCC1=O` to `C[C@@H](c1ccon1)N(C)C(=O)c1n[nH]c2ccccc12`, the Z score falls from 1.03 to 0.78.

First: Cc1ccc(-c2nc(C3(S(C)(=O)=O)CCCC3)no2)cc1
Second: CN(C)S(=O)(=O)c1ccc(C(=O)Nc2onc3c2CCC3)cc1
The Z score of the first is higher: 1.46 for the first, 0.88 for the second.

Going from `N#C[C@@H](NC(=O)CCC(=O)c1ccc(F)cc1F)C1CCCCC1` to `O=C(Nc1ccc(F)cc1)[C@@H]1C[C@H](C(=O)NC2CCCCC2)CN(Cc2c[nH]c3ccccc23)C1`, the Z score falls from 1.31 to 0.49.

Compared with `CC[C@@H](c1nc2c3c(C)c(C)n(-c4ccc(F)cc4)c3ncn2n1)N1C(=O)c2ccccc2C1=O`, `Cc1cccc(-n2c(-c3sc(Nc4ccccc4)nc3-c3ccccc3)nc3ccccc3c2=O)c1` is lower in Z score: 3.03 for the first, -1.09 for the second.

First: O=C(NC1CCC2(CC1)CC2)C1CCS(=O)(=O)CC1
Second: CN(C(=O)c1ccc(C(=O)O)s1)C(C1CC1)C1CC1
The Z score of the first is lower: -1.46 for the first, 1.96 for the second.

Going from `CCOc1cc(CN2C[C@H]3CC[C@@H](C2)[C@H]3O)cc(Cl)c1OCC` to `CCCOc1c(CN2C[C@]3(CCOC3)CCC2=O)cccc1OC`, the Z score rises from -0.89 to -0.31.

Compared with `CCOc1nc2cc(NC(=O)C[C@@H]3COC(=O)C3)ccc2o1`, `CC(C)(C)n1c(=O)c2ccc(F)cc2n1CC(=O)Nc1cccc(Cl)c1` is lower in Z score: 3.59 for the first, 1.23 for the second.

First: Cn1nc(C2CC2)c2c1NC(=O)C[C@H]2c1ccc(-c2ccccc2C#N)o1
Second: COc1ccc(C(=O)N2CCC3(CC2)C[C@@H](Cc2ccccc2)CCO3)cc1F
The Z score of the first is higher: 1.61 for the first, -0.16 for the second.

Going from `Cc1cc(C(=O)N2CCC[C@H](Oc3cccnn3)C2)c(C)o1` to `Cc1cc(S(=O)(=O)N2CCN(Cc3ccccn3)CC2)sc1C`, the Z score falls from 0.45 to -1.56.

First: CO[C@@H](C)c1nc(CN(C)Cc2cn(C)nn2)cs1
Second: CCO[C@@H](C)C(=O)NCCc1nc(C)c(Cl)s1
The Z score of the first is lower: 1.43 for the first, 1.9 for the second.

Compared with `CC1CN(c2nccnc2C#N)CCN1C(=O)NC1CCCC1C(C)(C)C` (stereo not drawn), `C=CC[C@@H]1N(Cc2nnc3n2CCCCC3)CCCC1(C)C` is higher in Z score: 0.37 for the first, 0.93 for the second.

Going from `CC[C@H](C)c1ccc(NC(=O)c2cccc(COc3ccc4ccccc4c3)c2)cc1` to `O=S(=O)(NCc1csc(-c2cccnc2)n1)c1ccc2ccccc2c1`, the Z score falls from 2.91 to -0.66.

First: COCC[C@]1(NC(=O)Nc2cccc(C)c2)CCN(C(=O)c2ccc(C)c(C)c2)C1
Second: Cc1scnc1NC(=O)c1cccc(N)c1
The Z score of the first is higher: 0.25 for the first, -0.07 for the second.

First: Nc1cc(C(=O)NCCc2cnn(-c3ccccc3)c2)n[nH]1
Second: CN(Cc1nc(-c2cccs2)no1)C(=O)c1cccc(F)c1
The Z score of the first is lower: 1.35 for the first, 1.73 for the second.

First: C=CCN1CC(=O)N(CCn2ccnc2)C1=O
Second: CCC(=O)N(CCn1cccn1)c1nc2ccc(F)cc2s1
The Z score of the first is higher: -1.1 for the first, -1.79 for the second.
